Results on 88 molecules are retold here after PubChem BioAssay AID463173 (ICCB-Longwood Screening Facility, Harvard Medical School, 2010).

Structures are written as SMILES. In all, about 52,000 compounds went through this assay and about 1,700 (3.3%) were called active. Cut-off read from the data, not from the text of the source: active = survival mostly below about 52% (no sharp cut-off); inactive = mostly above about 56%. The list shows a part of the results.

The subject of the experiment is Wild type. Nature of the experiment: growth inhibition of S. aureus wild type versus tarO mutant, primary screen, teichoic acid synthesis inhibitors, RN4220, OD600 (AID 463173). As to conditions: S. aureus RN4220 wild type/DeltatarO growth, OD600, 18 h, stronger effect = lower value, screened at 18.75 µg/mL (by protocol).
In the case of `CCOC(=O)c1cc(S(=O)(=O)Nc2c(C)cc(C)cc2C)[nH]n1`, the survival is inactive: 87%.
Regarding `Cc1ccc(C)c(NC(=O)C2CCCN2S(=O)(=O)c2ccc3c(c2)n(C)c(=O)c(=O)n3C)c1` (stereo not drawn), the survival was inactive: 71%.
`COc1ccc(C2C(C(=O)Nc3cccnc3)=C(C)Nc3nc(SCc4ccccc4)nn32)cc1` (stereo not drawn): the survival is inactive: 85%.
For `CCOCCCNC(=O)c1ccc(Cn2c(=O)c3cccn3c3cccnc32)cc1`, the survival is inactive: 88%.
The same measure for `CC(=O)NC(C)c1nc2ccccc2n1Cc1ccccc1Cl` (stereo not drawn): inactive: 91%; for `CCOC(=O)N1CCN(c2ncc3c(n2)CC(c2ccc(Cl)cc2)CC3=O)CC1` (stereo not drawn): inactive: 77%; for `CCOc1ccc(NC(=O)Nc2cc3c(cc2N2CCCCC2)n(C)c(=O)n3C)cc1`: inactive: 128%.
The same measure for `COc1ccc(-c2noc(-c3cc(-c4ccc(F)cc4)n[nH]3)n2)cc1`: inactive: 72%; for `O=C(NCc1ccc(F)cc1)c1nnc(Cc2cccc(F)c2)o1`: inactive: 90%; for `CCOC(=O)CCCCN(Cc1ccccc1F)S(=O)(=O)c1ccc(F)c(C(=O)Nc2cc(Cl)cc(Cl)c2)c1`: inactive: 79%.
The same measure for `COc1cc(-c2noc(-c3ccc(NC4CCCC4)c([N+](=O)[O-])c3)n2)cc(OC)c1OC`: inactive: 88%; for `CN(c1ccc(F)cc1)S(=O)(=O)N1CCCC(C(=O)NCCc2ccccc2)C1` (stereo not drawn): inactive: 105%.
As to `COc1ccc(C2=NC(C)(C)N(CC(=O)Nc3cc(OC)cc(OC)c3)C2=O)cc1`, the survival was inactive: 116%.
The same measure for `CCN1CCN(c2cc(C)c3cc(NC(=O)/C=C/c4cccc(OC)c4OC)ccc3n2)CC1`: inactive: 83%; for `Cc1ccc(-c2cc3nccc(-c4cc([N+](=O)[O-])ccc4O)n3n2)cc1`: inactive: 58%; for `CCCOc1ccc(-c2nc3ccc(Br)cc3c(=O)o2)cc1`: inactive: 76%.
Take `CCCCNC(=O)CSc1nc2n[nH]c(C)c2c(=N)n1-c1cccc(C)c1`: the survival was inactive: 69%.
With `CCOc1ccc(S(=O)(=O)NCc2nc3cccnc3n2Cc2ccccc2OC)cc1` the figure was inactive: 85%.
The same measure for `CCOC(=O)C1CCN(C(=O)c2ccc3c(c2)sc2nc(-c4ccc(OC)cc4)cn23)CC1`: inactive: 85%; for `Cc1c(C(=O)OC2CCCCCC2)[nH]c2c1C(=O)CC(c1ccccc1)C2` (stereo not drawn): inactive: 92%.
Consider `Cc1nc2ccc(S(=O)(=O)NC(CC(C)C)C(=O)NCc3ccc(Cl)cc3)cc2s1` (stereo not drawn), for which the survival was inactive: 68%.
For the molecule `O=C(Cn1c(=O)n(Cc2ccccc2)c(=O)c2sc3ccccc3c21)Nc1ccc(F)cc1`, the survival was inactive: 68%.
With `CCOC(=O)C1CCCN(c2cc(C)nc3cc(-c4ccc(Cl)cc4)nn23)C1` (stereo not drawn) the figure was inactive: 112%; with `CC1=C(C(=O)N2CCN(c3ccc(Cl)cc3)CC2)C2(CCC(C)CC2)OC1=O` (stereo not drawn), inactive: 124%.
Turning to `CCN(CC)C(=O)Cn1c(=O)sc2ccccc21`, the survival is inactive: 105%.
The same measure for `CCCCN(CC)CCCNC(=O)c1cc2c(=O)oc3ccc(C)cc3c2s1`: inactive: 97%.
With `Cc1ccc(C)c(Cn2c(=O)n(CCCC(=O)NCCc3ccc(Cl)cc3)c(=O)c3ccccc32)c1`, the survival was inactive: 94%.
Take `COc1ccc(-c2nc3sc(CCNC(=O)C(=O)Nc4ccc(C)c(C)c4)c(C)n3n2)cc1`: the survival was inactive: 117%.
The same measure for `O=C(COc1ccc(Cl)cc1)NCC(c1cccs1)S(=O)(=O)c1ccc(F)cc1` (stereo not drawn): inactive: 85%.
On to `CCOc1ccc(-c2nonc2NC(=O)c2ccco2)cc1OCC`, for which the survival is inactive: 111%.
With `COC(=O)c1ccccc1NC(=O)COC(=O)c1ccco1`, the survival is inactive: 108%.
`CCOC(=O)c1ccc(NC(=O)CC2C(=O)N(c3cccc(C)c3)C(=O)N2CCOC)cc1` (stereo not drawn): the survival is inactive: 82%.
With `CC(C)c1ccc(NC(=O)c2cnc3sc(N4CCCC4)nn3c2=O)cc1` the figure was inactive: 99%; with `CCOc1ccccc1CNC(=O)c1cc2c(=O)n(Cc3ccco3)ccc2nc1C`, inactive: 88%.
With `COc1ccc(OC)c(-c2csc(-c3c(N)c(C(=O)c4ccc(Cl)cc4)n4ccccc34)n2)c1` the figure was inactive: 119%; with `CCOc1cc(CNC(=O)NC2COc3ccccc3C2)cc(OCC)c1OCC` (stereo not drawn), inactive: 148%.
Take `Cn1c(=O)[nH]c(=O)c2[nH]c(N(CCO)CCO)nc21`: the survival was inactive: 113%.
The same measure for `Cc1ccc(OCC(=O)Nc2nnc(SCc3cc(=O)n4cccc(C)c4n3)s2)cc1`: inactive: 64%; for `Cc1ccc(NC(=O)CSc2nc3c(sc4ccccc43)c(=O)n2CCCC(=O)NC2CCCC2)cc1C`: inactive: 86%.
The same measure for `CC(C)COc1ccc(C(=O)Nc2nnc(S(=O)(=O)N(C)Cc3ccco3)s2)cc1`: inactive: 88%; for `COc1cccc(CNC(=O)c2cc3c(=O)n(Cc4cccnc4)ccc3nc2C)c1`: inactive: 148%.
Turning to `COc1ccc(C(=O)Nc2nnc(S(=O)(=O)N(C)c3ccc(C)cc3)s2)cc1`, the survival was inactive: 78%.
For `CCc1ccccc1Nc1ncnc2c1cnn2-c1ccc(C)cc1C`, the survival is inactive: 83%.
For `COc1ccc(C(=O)Nc2nnc(S(=O)(=O)N3CCN(c4ccc(F)cc4)CC3)s2)cc1`, the survival is inactive: 77%.
For the molecule `CCc1cccc(NC(c2ccccc2)c2nnc(-c3ccccc3F)o2)c1` (stereo not drawn), the survival was active: 1%.
Turning to `CCOC(=O)c1c(C)[nH]c(C)c1S(=O)(=O)N1CCCC(C(=O)NCc2ccccc2Cl)C1` (stereo not drawn), the survival was inactive: 67%.
With `CCCc1cc(=O)oc2c(C)c3c(cc12)CN(CCc1ccc(Cl)cc1)CO3` the figure was inactive: 63%; with `Cc1ccc2oc(-c3cc(NC(=O)CC(C)C)ccc3Cl)nc2c1`, inactive: 87%; with `CCC(C)NC(=O)Cn1c(=O)n(-c2ccc(OC)c(OC)c2)c(=O)c2ccccc21` (stereo not drawn), inactive: 87%.
With `CC1Oc2ccccc2N(CC(=O)NCC2CCCO2)C1=O` (stereo not drawn) the figure was inactive: 102%; with `Cc1ccc2c(c1)Cc1c(nc(-c3ccc(F)cc3)nc1SCC(=O)N1CCCCC1)O2`, inactive: 75%; with `Cc1ccc(Nc2c(-c3cccnc3)nc3ccc(Cl)cn23)cc1`, inactive: 88%.
`CCOC(=O)C1CCN(C(=O)c2c(C)nn(-c3ccc(F)cc3)c2-n2cccc2)CC1`: the survival is inactive: 65%.
As to `COc1ccc2cc(CCNS(=O)(=O)c3ccc(C)cc3)c(=O)[nH]c2c1`, the survival is inactive: 72%.
The same measure for `O=C(O)CCNC(=O)C(c1ccccc1)c1ccccc1`: inactive: 100%.
On to `O=C(Cn1nnc(-c2ccc(S(=O)(=O)N3CCCC3)cc2)n1)Nc1ccccc1-n1cccc1`, for which the survival was inactive: 108%.
The same measure for `CCCc1nnc(NC(=O)Cc2coc3c(C)c(C)ccc23)s1`: inactive: 104%; for `O=S(=O)(c1ccc(-c2csc(=Nc3ccc(F)cc3)n2CCCCCCO)cc1)N1CCCC1`: inactive: 55%; for `Cc1cccc(OCC(=O)Nc2ccc3c(c2)nc(CN2CCCCC2)n3C)c1`: inactive: 87%.
The same measure for `O=C(COCc1cc(-c2cccs2)on1)NCc1ccc(F)cc1`: inactive: 73%; for `O=C(Nc1ccc(Cl)cc1)c1ccc(-n2cnnc2)cc1`: inactive: 72%; for `Cc1ccc(-n2ncc3c(N4CCN(Cc5ccccc5)CC4)ncnc32)cc1Cl`: inactive: 72%.
With `CCc1cc(=O)[nH]c(SCc2nc(-c3cccc(Cl)c3)no2)n1`, the survival was inactive: 22%.
With `CC(C)c1ccc(NC(=O)C2CCCN2S(=O)(=O)c2ccc3nc(-c4ccccc4)[nH]c3c2)cc1` (stereo not drawn) the figure was inactive: 64%; with `O=C(Cn1nc(C(F)(F)F)c2c1CCC2)NC1CCCC1`, inactive: 108%; with `Cc1ccc(Cl)cc1N1CCN(S(=O)(=O)c2ccc3c(c2)C(C(C)C)C(=O)N3)CC1` (stereo not drawn), inactive: 97%.
As to `CCOCCCn1c(SCC(=O)Nc2ccc(CC)cc2)nc2ccccc2c1=O`, the survival was inactive: 85%.
Take `Cc1cccc(NC(=O)CC(C)(C)C)c1`: the survival is inactive: 103%.
As to `COc1ccc(C(=O)N(Cc2sccc2C)C2CCS(=O)(=O)C2)cc1` (stereo not drawn), the survival is inactive: 86%.
With `COc1cc(NC(=O)Cn2ccc3ccccc3c2=O)cc(OC)c1OC`, the survival was inactive: 91%.
The same measure for `Cc1ccc(-n2ncc(C(=O)NCCN3CCN(C)CC3)c2C2CCN(C(=O)OC(C)(C)C)CC2)cc1`: inactive: 74%; for `CCc1ccc(C2C(C(=O)Nc3ccccc3OC)=C(C)Nc3nc(SCc4ccccc4)nn32)cc1` (stereo not drawn): inactive: 78%.
As to `CCOc1ccc(CNC(=O)CN2N=C(c3ccccc3)CCC2=O)cc1OC`, the survival was inactive: 121%.
Regarding `Cc1ccc(CNC(=O)CSc2nc3ccsc3c(=O)n2-c2ccc(Br)cc2)cc1`, the survival is active: 14%.
As for `Cn1c(C(=O)NCCc2ccccc2)cc2sc(Cl)cc21`, the survival is inactive: 118%.
The same measure for `Cc1nc(C)c(-c2ccc(SCC(=O)Nc3cccc(C)c3C)nn2)s1`: inactive: 78%.
Consider `Cc1ccc(Cn2c(CNC(=O)c3ccc(Cl)c([N+](=O)[O-])c3)nc3cccnc32)cc1`, for which the survival is inactive: 79%.
Consider `CCCc1ccc(NC(=O)C2CCCN(c3cnccn3)C2)cc1` (stereo not drawn), for which the survival is inactive: 82%.
As to `CCOc1cc(CNC(=O)Cn2ncn3c(cc4cc(F)ccc43)c2=O)cc(OCC)c1OCC`, the survival was inactive: 83%.
With `CCc1ccc(NC(=O)C2CCN(S(=O)(=O)c3cccc(-c4noc(C)n4)c3)CC2)cc1` the figure was inactive: 90%; with `Cc1ccccc1C(=O)NNc1ncnc2c1cnn2-c1cccc(Cl)c1`, inactive: 73%.
With `CC(=O)c1ccc(NC(=O)CC2Nc3cc(C)c(C)cc3NC2=O)cc1` (stereo not drawn) the figure was inactive: 78%.
For the molecule `CCC1Oc2ccc(C)cc2N(CC(=O)N2CCN(c3ccccc3OC)CC2)C1=O` (stereo not drawn), the survival is inactive: 63%.
The same measure for `Cc1noc(C)c1S(=O)(=O)N(CC(=O)NCCc1ccc(Cl)cc1)c1ccc(C(C)C)cc1`: inactive: 85%; for `CCOc1ccc(Nc2nc(C)c(NC(=O)c3cccc(F)c3)c(Nc3ccc(OCC)cc3)n2)cc1`: inactive: 141%.
In the case of `COc1cccc(-c2oc3ccc(C)cc3c(=O)c2O)c1`, the survival was inactive: 78%.
The same measure for `CC1CCN(S(=O)(=O)c2ccc(NC(=O)CSc3nnnn3C)cc2)CC1`: inactive: 108%.
With `N#Cc1cc2cc3c(cc2nc1SCC(=O)NC1CCCCC1)OCCO3` the figure was inactive: 103%.
